{"source": "PubChem BioAssay AID1508642", "about": "(National Center for Advancing Translational Sciences (NCATS), 2021)", "note": "The whole screen tested about 43,000 compounds, of which about 200 (0.47%) were called active. Roughly 12% stayed inconclusive and do not appear here. Calls come from the whole dose curve; as a rule, active = well fitted cell-killing curve with a large enough effect; inconclusive = small, poorly fitted or top-dose-only effect, or effect the other way; inactive = flat fitted curve, though single readings scatter. The list shows a part of the results. % is set by controls: 0 for no effect and ±100 for the full control effect.", "data": [{"test": "Cell viability qHTS assay in S16 Pmp22-F2sN cells; note: nearly all actives have a fitted effect of over 65% in size", "settings": "S16 Pmp22-F2sN Schwann cells viability, CellTiter-Glo, 24 h; series mostly up to 57.5 µM; activity change, negative = cytotoxicity: at the top concentration", "in_short": "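Used to flag compounds lowering reporter output through toxicity, this quantitative HTS measures ATP-based CellTiter-Glo luminescence in S16 Pmp22-F2sN Schwann cells after 24 h compound exposure at 37C.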", "values": [{"smiles": "Cc1ccc(NC(=O)c2oc3ccccc3c2NC(=O)c2ccccc2C)cc1", "activity change, negative = cytotoxicity": "inactive: 3.61%"}, {"smiles": "COc1ccc(Cn2c(=O)c3cccnc3n(Cc3cccc(OC)c3)c2=O)cc1", "activity change, negative = cytotoxicity": "inactive: 3.12%"}, {"smiles": "CSc1nnc(NC(=O)Cc2coc3cc(C)ccc23)s1", "activity change, negative = cytotoxicity": "inactive: 20%"}, {"smiles": "Nc1cccc(-c2cn3ccsc3n2)c1", "activity change, negative = cytotoxicity": "inactive: 1.67%"}, {"smiles": "COc1cc(/C=C(\\C#N)c2nc3ccccc3n2C)cc(OC)c1OC", "activity change, negative = cytotoxicity": "inactive: -18.9%"}, {"smiles": "Cc1ccc(NC(=O)c2cc(S(=O)(=O)N3CCCC(C)C3)cn2C)c(Br)c1", "note": "(stereo not drawn)", "activity change, negative = cytotoxicity": "inactive: 15.4%"}, {"smiles": "O=c1c2cc3c(cc2nc2sc(Nc4ccc(F)c(Cl)c4)nn12)OCO3", "activity change, negative = cytotoxicity": "inactive: 17.8%"}, {"smiles": "COc1cc(OC)c(N(C)C(=O)Cn2ncc3c([nH]c4ccccc43)c2=O)cc1Cl", "activity change, negative = cytotoxicity": "inactive: -1.73%"}, {"smiles": "CCN1CCN(c2oc(/C=C/c3ccccc3OC)nc2C#N)CC1", "activity change, negative = cytotoxicity": "inactive: 6.11%"}, {"smiles": "Cn1c(=O)c2c(-c3cccc(Br)c3)n(CCO)cc2n(C)c1=O", "activity change, negative = cytotoxicity": "inactive: 0.848%"}, {"smiles": "Cc1cccc(OCC(=O)OCc2cc(=O)n3nc(C4CCCCC4)sc3n2)c1", "activity change, negative = cytotoxicity": "inactive: 25.2%"}, {"smiles": "COc1ccc(C(=O)COC(=O)c2cccc(NC(=O)c3ccc(OC)c(OC)c3)c2)cc1", "activity change, negative = cytotoxicity": "inactive: -3.75%"}, {"smiles": "CCOC(=O)C(CC)n1nc(C)n2c(cc3occc32)c1=O", "note": "(stereo not drawn)", "activity change, negative = cytotoxicity": "inactive: 13.8%"}, {"smiles": "Cc1ccc(S(=O)(=O)NCC(c2ccc(N(C)C)cc2)N2CCOCC2)cc1", "note": "(stereo not drawn)", "activity change, negative = cytotoxicity": "inactive: 0.308%"}, {"smiles": "O=C(NC1CCCCCC1)C1CCN(C(=O)N2CCOc3ccccc32)CC1", "activity change, negative = cytotoxicity": "inactive: 0.232%"}, {"smiles": "COc1ccc(C(=O)c2cn(Cc3ccc(F)cc3)c3ccc(C)cc3c2=O)cc1", "activity change, negative = cytotoxicity": "inactive: -0.194%"}, {"smiles": "Cc1ccc(-c2nc3ccccn3c2Nc2ccc3c(c2)OCO3)cc1", "activity change, negative = cytotoxicity": "inactive: -4.91%"}, {"smiles": "CCOC(=O)c1c(NC(=O)c2ccccc2Cl)sc2c1CCCC2", "activity change, negative = cytotoxicity": "inactive: -6.58%"}, {"smiles": "COCCNC(=O)c1c(C)oc2nc(C)nc(N3CCOCC3)c12", "activity change, negative = cytotoxicity": "inactive: 2.08%"}, {"smiles": "Cc1ccc2c(c1)NC(c1cccnc1)=NC(c1ccc(F)cc1)=N2", "activity change, negative = cytotoxicity": "inactive: 3.04%"}, {"smiles": "Cc1ccc(-c2nnc(SCc3ccccc3C#N)o2)cc1", "activity change, negative = cytotoxicity": "inactive: 1.9%"}, {"smiles": "COc1cccc(-c2nc(CS(=O)(=O)CC(=O)NCc3ccc(C)cc3)c(C)o2)c1", "activity change, negative = cytotoxicity": "inactive: -14.5%"}, {"smiles": "Cc1ccc(CN2C(=O)C(O)(c3c[nH]c4ccccc34)c3cc(Cl)ccc32)cc1", "note": "(stereo not drawn)", "activity change, negative = cytotoxicity": "inactive: -1.34%"}, {"smiles": "O=[N+]([O-])c1cc(-c2nc(-c3ccccc3)no2)ccc1N1CCN(c2ccccc2)CC1", "activity change, negative = cytotoxicity": "inactive: 2.7%"}, {"smiles": "Cc1ccc(CNC(=O)C2CCN(c3nc4ccccc4n(C)c3=O)CC2)cc1", "activity change, negative = cytotoxicity": "inactive: -1.08%"}, {"smiles": "CCOC(=O)CSc1nc2c(sc3ccccc32)c(=O)n1CCc1ccccc1", "activity change, negative = cytotoxicity": "inactive: 13.6%"}, {"smiles": "Cn1cc(S(=O)(=O)N2CCCCCC2)cc1C(=O)N1CCN(c2cccc(Cl)c2)CC1", "activity change, negative = cytotoxicity": "inactive: 8.15%"}, {"smiles": "Cc1cccc(C)c1NC(=O)Cn1c(=O)n(CC2CCC(C(=O)NCCc3ccccc3)CC2)c(=O)c2ccccc21", "note": "(stereo not drawn)", "activity change, negative = cytotoxicity": "inactive: 2.8%"}, {"smiles": "CCOC(=O)C1CCN(C(=O)C2CCN(C3=NS(=O)(=O)C(c4ccc(C)cc4)=C3CC)CC2)CC1", "activity change, negative = cytotoxicity": "inactive: 8.49%"}, {"smiles": "Cc1ccc(NC(=O)Cn2nnc(-c3nc(-c4ccncc4)no3)c2N)cc1", "activity change, negative = cytotoxicity": "inactive: -0.651%"}, {"smiles": "CCCOc1ccc(CNC(=O)C(CC)n2nc(C)c3sc4ccccc4c3c2=O)cc1", "note": "(stereo not drawn)", "activity change, negative = cytotoxicity": "inactive: 7.02%"}, {"smiles": "CCOc1ccc2nc(C)cc(Nc3ccccc3OCC)c2c1", "activity change, negative = cytotoxicity": "inactive: -13.3%"}, {"smiles": "Cc1ccc(C(=O)O)cc1Nc1nc2ccccc2n2nnnc12", "activity change, negative = cytotoxicity": "inactive: 0.631%"}, {"smiles": "COc1ccc(-c2cc3ccc(O)c(CN4CCOCC4)c3oc2=O)cc1", "activity change, negative = cytotoxicity": "inactive: 4.02%"}, {"smiles": "CC(=O)N1CCc2cc(Br)cc(S(=O)(=O)N3CCC(C(=O)N(C)c4cc(C)ccc4C)CC3)c21", "activity change, negative = cytotoxicity": "inactive: 4.74%"}, {"smiles": "COc1cc(NC(=O)c2ccccc2)ccc1NC(=O)c1cc2ccccc2o1", "activity change, negative = cytotoxicity": "inactive: 19.3%"}, {"smiles": "Cc1cccc(NC(=O)CSc2nc(-c3ccco3)nc3cc(=O)[nH]n23)c1", "activity change, negative = cytotoxicity": "inactive: -23.9%"}, {"smiles": "CCn1cc(C(=O)N2CCN(c3ccccc3F)CC2)c(=O)c2cc(S(=O)(=O)N(C)C3CCCCC3)ccc21", "activity change, negative = cytotoxicity": "inactive: -7.9%"}, {"smiles": "CCOC(=O)c1c(C)oc2nc(C)nc(NCc3ccc(Cl)cc3)c12", "activity change, negative = cytotoxicity": "inactive: 1.4%"}, {"smiles": "O=C(CCn1c(=O)c2ccccc2n(Cc2ccc(F)cc2Cl)c1=O)NCc1ccc2c(c1)OCO2", "activity change, negative = cytotoxicity": "inactive: 1.64%"}, {"smiles": "CCc1ccc(NC(=O)C2CCN(S(=O)(=O)c3ccc4[nH]c5c(c4c3)CCCCC5)CC2)cc1", "activity change, negative = cytotoxicity": "inactive: -0.972%"}, {"smiles": "COc1ccc(-c2ccc3c(N)c(C(=O)NCc4ccc(Cl)cc4)sc3n2)cc1", "activity change, negative = cytotoxicity": "inactive: 3.85%"}, {"smiles": "COC(=O)c1c(SC)nc2ccccc2c1OCc1ccccc1C", "activity change, negative = cytotoxicity": "inactive: 6.59%"}, {"smiles": "O=C(CSc1nc2c(oc3ccccc32)c(=O)n1-c1ccccc1F)Nc1ccccc1", "activity change, negative = cytotoxicity": "inactive: -1.91%"}, {"smiles": "CCOC(=O)c1c(S(=O)(=O)N2CCCC(C(=O)N3CCN(c4cccc(C)c4C)CC3)C2)c(C)n(C)c1C", "note": "(stereo not drawn)", "activity change, negative = cytotoxicity": "inactive: -20.6%"}, {"smiles": "O=C(CN1C(=O)COc2ccc(S(=O)(=O)N3CCOCC3)cc21)NCc1ccc(F)cc1", "activity change, negative = cytotoxicity": "inactive: 17.3%"}, {"smiles": "CCOc1cc(S(=O)(=O)n2ccnc2C(C)C)ccc1Cl", "activity change, negative = cytotoxicity": "inactive: -2.91%"}, {"smiles": "CC(C)CN1CCc2nc(N3CCN(C)CC3)ncc2C1", "activity change, negative = cytotoxicity": "inactive: -0.311%"}, {"smiles": "Cn1c(=O)cc(SCC(=O)N2CCN(c3ccc(F)cc3)CC2)c2ccc(Cl)cc21", "activity change, negative = cytotoxicity": "inactive: 6.17%"}, {"smiles": "Cc1ccc(Nc2c3c(nc4nncn24)CCC3)cc1C", "activity change, negative = cytotoxicity": "inactive: -0.635%"}, {"smiles": "CCCCC(CC)CNC(=O)C1CCN(S(=O)(=O)c2cccc3nsnc23)CC1", "note": "(stereo not drawn)", "activity change, negative = cytotoxicity": "inactive: -1.95%"}, {"smiles": "Cc1ccccc1NC(=O)CCn1cnc2onc(-c3ccc(F)cc3)c2c1=O", "activity change, negative = cytotoxicity": "inactive: -26%"}, {"smiles": "CCC(C)(C)C1CCc2c(sc(NC(=O)C3c4ccccc4Oc4ccccc43)c2C(N)=O)C1", "note": "(stereo not drawn)", "activity change, negative = cytotoxicity": "inactive: 15.5%"}, {"smiles": "O=S(=O)(c1ccccc1)c1nc(-c2cccs2)oc1SCc1ccccc1F", "activity change, negative = cytotoxicity": "inactive: -0.231%"}, {"smiles": "Cc1ccc(NS(=O)(=O)c2c(C(=O)N3CCC(C)CC3)c(C)n(C)c2C)cc1Cl", "activity change, negative = cytotoxicity": "inactive: -11.2%"}, {"smiles": "N#Cc1nc(-c2ccc(COc3ccc(Cl)cc3)o2)oc1N1CCN(c2ccccc2)CC1", "activity change, negative = cytotoxicity": "inactive: 2.73%"}, {"smiles": "CCOc1ccc(NC(=O)CCn2cnc3onc(-c4ccc(F)cc4)c3c2=O)cc1", "activity change, negative = cytotoxicity": "inactive: 10.6%"}, {"smiles": "O=C(CSc1nccn1-c1ccc(F)cc1)Nc1ccc(OC(F)(F)F)cc1", "activity change, negative = cytotoxicity": "inactive: -9.66%"}, {"smiles": "CCOC(=O)c1c(-c2ccc(Br)cc2)csc1NC(=O)c1ccccc1F", "activity change, negative = cytotoxicity": "inactive: -5.05%"}, {"smiles": "CCN(CC)C(=O)Cn1c(=O)n(Cc2ccc(C(=O)NCc3ccccc3Cl)cc2)c(=O)c2ccccc21", "activity change, negative = cytotoxicity": "inactive: 12.6%"}, {"smiles": "Cc1ccc2c(C)c(C(=O)N(Cc3ccc(Cl)cc3)C3CCS(=O)(=O)C3)oc2c1", "note": "(stereo not drawn)", "activity change, negative = cytotoxicity": "inactive: -0.166%"}, {"smiles": "O=C1CN(C(=O)c2ccccc2C(F)(F)F)C(c2ccccc2)c2cc(F)ccc2N1", "note": "(stereo not drawn)", "activity change, negative = cytotoxicity": "inactive: -9.35%"}, {"smiles": "O=C1[C@@H]2CSC(c3ccc(C(F)(F)F)cc3)N2C(=O)N1c1ccccc1", "note": "(stereo partly drawn)", "activity change, negative = cytotoxicity": "inactive: 0.425%"}]}]}
